Measurements as given in the supplement of paper PMC12217912.
The list shows a part of the results. Sequences were assembled here from the parent chain. Values near 0.05 are background.

B1: TEV protease; numbered along this chain (parent)
chain: MGESLFKGPRDYNPISSSICHLTNESDGHTTSLYGIGFGPFIITNKHLFRRNNGTLVVQSLHGVFKVKDTTTLQQHLVDGRDMIIIRMPKDFPPFPQKLKFREPQREERICLVTTNFQTKSMSSMVSDTSCTFPSGDGIFWKHWIQTKDGQCGSPLVSTRDGFIVGIHSASNFTNTNNYFTSVPKNFMELLTNQEAQQWVSGWRLNADSVLWGGHKVFMVKPEEPFQPVKEATQL

Variants of: B1
Experiment: raw area under fraction-flipped curve 0-4 h after induction (AUC4h, not background-subtracted), DNA-recorder readout of cleavage of the substrate (dimensionless); higher = more cleavage of the substrate by the protease variant
Details: temperature: 34 °C; time window: 0-4 h after rhamnose induction
Procedure: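 In vivo DNA recorder in E. coli TOP10(DE3) ΔrhaA at 34 °C. Each TEVp single-site mutant (parent TEVp 0) is paired with a single-site variant of the 7-mer TEVs (canonical ENLYFQ|S). The substrate sits between flexible linkers in a Bxb1-sfGFP-TEVs-SsrA fusion, so cleavage stabilises Bxb1 and speeds flipping of a recombination array, read by NGS. The value is the raw area under the fraction-flipped curve over 0-4 h after rhamnose induction (AUC4h), with ≥20 reads per time point. It is not background-subtracted; inactive controls average about 0.047.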
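Also: Bxb1 expression induced with 0.2% (w/v) L-rhamnose at OD600 near 0.5, cultures sampled hourly, flipped fraction per protease–substrate barcode pair counted by paired-end Illumina sequencing.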

Variant	area with substrate ENLYFQA	area with substrate ENLYFQC	area with substrate ENLYFQD	area with substrate ENLYFQG	area with substrate ENLYFQI	area with substrate ENLYFQK	area with substrate ENLYFQL	area with substrate ENLYFQM	area with substrate ENLYFQN	area with substrate ENLYFQP	area with substrate ENLYFQS	area with substrate ENLYFQT	area with substrate ENLYFQV	area with substrate ENLYFQW	area with substrate ENLYFQY	area with substrate ENLYFQR	area with substrate ENLYFQE	area with substrate ENLYFQH	area with substrate ENLYFQF	area with substrate ENLYFQQ
E3L	0.0692	0.0554	0.0851	0.0744	0.0592	0.0718	0.0596	0.0582	0.0569	0.0611	0.0635	0.0779	0.0138	0.0593	0.0574	–	–	–	–	–
S154Y	–	0.131	–	–	–	–	0.0674	0.098	–	0.0644	0.0969	0.0777	0.0604	0.0622	–	0.0569	–	–	–	–
F38H	0.091	0.127	0.0722	–	0.0589	0.0497	0.056	0.0872	0.0705	–	0.0887	0.0649	0.0579	0.0642	–	0.0606	0.0566	0.0809	–	–
T119V	–	0.121	0.0692	0.111	–	–	0.0658	–	–	–	0.101	0.0691	–	0.068	–	0.0445	–	0.0753	–	–
F117Q	–	0.126	0.0844	–	–	0.0572	–	0.148	0.0772	0.0518	0.109	0.071	–	0.0511	0.0559	0.0582	0.0521	–	0.0811	–
I86T	0.0896	0.0808	0.054	0.0701	0.0462	–	0.0473	0.0612	0.0639	–	0.0751	0.0531	–	–	0.076	0.0604	–	–	0.0724	–
E25H	0.0837	0.106	0.0558	–	0.0646	0.0536	0.0617	0.0757	0.0927	–	0.0984	–	0.0597	0.0376	–	–	–	–	–	–
F49W	0.0951	0.106	0.088	0.0866	0.0596	0.0697	0.0642	0.0877	0.0876	0.066	0.0961	0.0776	–	0.0529	0.0728	0.122	–	0.0712	–	–
K120S	–	0.135	–	0.0899	0.061	0.0646	0.062	0.0977	0.0806	–	0.105	0.0691	0.0559	0.065	0.0813	0.0577	–	–	–	–
D91I	0.0863	0.0044	–	0.077	0.0177	0.0593	0.0673	0.0797	–	0.0485	0.0955	0.0726	0.0539	–	0.0574	0.0584	–	–	–	–
L211Y	–	0.112	–	0.123	0.0462	0.0658	0.0699	–	0.073	0.0533	0.105	0.0736	0.0594	0.0797	0.0764	0.0552	–	0.0727	–	–
R51W	0.105	0.112	0.0569	–	0.0552	0.0549	0.0738	–	0.102	–	0.119	0.0697	0.0572	–	–	0.0559	–	–	0.0835	0.0617
I110L	0.0991	0.0993	–	0.104	0.0505	0.0583	0.0757	0.0942	0.0842	0.0522	0.119	0.0616	0.0703	0.0666	–	–	–	0.0924	–	–
S130H	0.123	–	0.0655	–	–	0.0668	–	–	–	–	0.0931	–	0.0649	0.0689	0.0856	0.0747	–	–	0.0629	–
